Results on 43 molecules are retold here after PMC4336329 (PLoS ONE, 2015).

Screen size: about 310,000 compounds; about 14,000 (4.5%) showed an effect of 50% or more. Effects have a minus sign here. This is one part of the list.
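Note: peak tail current of the secondary pulse compared with the same well before compound.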

For the test, the target named is human ether-à-go-go-related gene (hERG) potassium channel (human, UniProt Q12809). Nature of the test: primary screen, population patch clamp on CHO cells stably expressing hERG.
human ether-à-go-go-related gene (hERG) potassium channel, sequence (Q12809 whole entry, looked up): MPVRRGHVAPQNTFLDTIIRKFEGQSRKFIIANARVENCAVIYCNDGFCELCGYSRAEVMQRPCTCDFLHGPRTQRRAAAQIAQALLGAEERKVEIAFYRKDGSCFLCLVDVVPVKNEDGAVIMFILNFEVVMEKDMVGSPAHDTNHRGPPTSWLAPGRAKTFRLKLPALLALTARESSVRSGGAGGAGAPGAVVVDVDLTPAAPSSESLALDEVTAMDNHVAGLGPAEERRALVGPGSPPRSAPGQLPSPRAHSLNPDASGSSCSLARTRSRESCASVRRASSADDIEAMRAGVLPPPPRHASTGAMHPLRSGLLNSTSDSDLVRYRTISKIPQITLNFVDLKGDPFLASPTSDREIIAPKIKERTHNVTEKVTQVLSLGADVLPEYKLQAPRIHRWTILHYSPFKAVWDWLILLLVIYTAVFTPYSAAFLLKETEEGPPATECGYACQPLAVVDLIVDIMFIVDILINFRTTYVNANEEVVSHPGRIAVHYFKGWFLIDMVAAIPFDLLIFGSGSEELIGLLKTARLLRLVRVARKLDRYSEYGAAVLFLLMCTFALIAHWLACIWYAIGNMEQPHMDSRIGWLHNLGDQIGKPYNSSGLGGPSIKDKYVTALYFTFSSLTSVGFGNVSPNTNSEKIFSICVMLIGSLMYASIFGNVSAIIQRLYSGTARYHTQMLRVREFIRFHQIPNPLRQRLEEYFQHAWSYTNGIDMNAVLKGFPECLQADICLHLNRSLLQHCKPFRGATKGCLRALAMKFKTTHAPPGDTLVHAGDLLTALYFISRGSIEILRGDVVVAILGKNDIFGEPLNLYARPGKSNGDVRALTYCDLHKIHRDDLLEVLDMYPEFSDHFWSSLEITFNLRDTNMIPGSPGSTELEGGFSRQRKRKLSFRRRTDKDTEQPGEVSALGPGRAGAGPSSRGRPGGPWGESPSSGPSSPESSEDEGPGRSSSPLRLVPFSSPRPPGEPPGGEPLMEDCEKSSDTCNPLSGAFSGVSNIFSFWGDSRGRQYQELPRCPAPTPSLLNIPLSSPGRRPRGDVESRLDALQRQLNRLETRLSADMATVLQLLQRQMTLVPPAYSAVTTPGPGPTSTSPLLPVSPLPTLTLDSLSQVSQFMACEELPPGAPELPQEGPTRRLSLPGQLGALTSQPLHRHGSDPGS
Turning to `O=C(N/N=C/c1cc(Cl)ccc1O)c1ccc(Br)cc1`, the “hERG current change (%, negative = inhibition) at 10uM” value was 23.2%.
In the case of `O=C(O)C(=O)O.O=C(c1cccc(Cl)c1)N1CCN(C2CCCCC2)CC1`, the “hERG current change (%, negative = inhibition) at 10uM” value is -40.8%.
The same measure for `COc1cc(CC(=O)Nc2ccccc2N2CCCCC2)cc(OC)c1OC`: -22.1%; for `c1ccc(-n2c(-c3cccs3)nc3nc4ccccc4nc32)cc1`: 5.51%; for `CN(CC(=O)NCc1ccc(Cl)cc1)S(=O)(=O)c1cccs1`: -12.2%.
For the molecule `CN1C[C@H](C(=O)N[C@]2(C)O[C@@]3(O)[C@@H]4CCCN4C(=O)[C@H](Cc4ccccc4)N3C2=O)CC2c3cccc4[nH]cc(c34)C[C@H]21.O=C(O)C(O)C(O)C(=O)O` (stereo partly shown), the “hERG current change (%, negative = inhibition) at 10uM” value is 2.03%.
On to `Cc1cc(C)cc(NC(=O)CCc2ccc(C)o2)c1`, for which the “hERG current change (%, negative = inhibition) at 10uM” value is -19.2%.
As for `COc1ccc2[nH]c3c(=O)n4c(nc3c2c1)SCCC4`, the “hERG current change (%, negative = inhibition) at 10uM” value is on record as -8.13%.
As for `NNC(=O)c1[nH]c2ccccc2c1-c1ccccc1`, the figure is 19.2%.
Consider `CCc1noc(C)c1C(=O)N1CCN(S(=O)(=O)c2ccccc2C(F)(F)F)CC1`, for which the “hERG current change (%, negative = inhibition) at 10uM” value was -11.7%.
`CN(Cc1cccc(F)c1)C(=O)c1ccc(S(=O)(=O)N2CCOCC2)cc1`: the “hERG current change (%, negative = inhibition) at 10uM” value is -4.57%.
`COc1ccc(CCNC(=O)C2=CC=CN3CCS(=O)(=O)N=C23)cc1`: the “hERG current change (%, negative = inhibition) at 10uM” value is -7.92%.
Turning to `Cc1c(Cl)cccc1NC(=O)N1CCCN(c2nc(-c3ccccc3)ns2)CC1`, the “hERG current change (%, negative = inhibition) at 10uM” value is given as 2.41%.
Regarding `CC1=NN(C(N)=S)C(=O)C1N=Nc1ccc(C)cc1C` (stereo not shown), the “hERG current change (%, negative = inhibition) at 10uM” value stood at 1.29%.
The same measure for `CC(=O)c1cccc(N(CC(=O)N2CCOCC2)S(C)(=O)=O)c1`: 8.61%; for `C=CCn1c(Cc2csc(N)n2)nnc1SCc1ccc(C(=O)OC)cc1`: -4.79%; for `CCCS(=O)(=O)n1nc(-c2ccc(OC)cc2OC)cc1N`: -17.9%.
With `COC(=O)CSc1nsc(SCC(=O)OC)c1C#N`, the “hERG current change (%, negative = inhibition) at 10uM” value is recorded as 5.34%.
In the case of `COc1ccc(NC(=O)Cc2ccc(-c3ccccc3)cc2)cn1`, the “hERG current change (%, negative = inhibition) at 10uM” value is on record as -3.01%.
Turning to `Cc1ccc(S(=O)(=O)N2CCN(CC(=O)N/N=C/c3ccccc3OCC(=O)O)CC2)cc1`, the “hERG current change (%, negative = inhibition) at 10uM” value is reported as 10.5%.
`Cc1cccc(C)c1NC(=O)CCN1C(=O)C2C3CCC(C3)C2C1=O` (stereo not shown): the “hERG current change (%, negative = inhibition) at 10uM” value is -6.63%.
Regarding `Cc1nc2ccc(S(=O)(=O)NCC(=O)N3CCCC(C)C3)cc2s1` (stereo not shown), the “hERG current change (%, negative = inhibition) at 10uM” value worked out at 1.27%.
As for `Cc1nc(-n2ncc(C#N)c2N)c2c3c(sc2n1)CCC3`, the figure is -1.01%; as for `C#Cc1ccc([C@@H]2C=C(C(=O)NCc3nc4ccccc4[nH]3)O[C@H](OCC)[C@H]2CCCO)cc1`, -30.7%; as for `CCOC(=O)c1c(NC(=O)CCS(=O)(=O)c2ccccc2)sc2c1CC(C)(C)NC2(C)C`, -44.9%.
For `CC1=C(C(=O)O)N2C(=O)C(NC(=O)c3ccc(F)cc3)C2SC1` (stereo not shown), the “hERG current change (%, negative = inhibition) at 10uM” value came out at 7.21%.
As for `CCNC(C(=O)c1c[nH]c2c(CC)cccc12)c1ccccc1` (stereo not shown), the figure is 20.3%; as for `CC1(c2nnc(-c3ccc(Cl)cc3)o2)CC(c2cccnc2)=NO1` (stereo not shown), -20.7%; as for `C[C@@H]1NS(=O)(=O)[C@H]2C[C@@H]3C=C[C@]2(O3)[C@H]1OC(=O)Nc1ccc(C(F)(F)F)cc1[N+](=O)[O-]`, 9.28%.
As to `CCOP(=O)(c1ccc(N(C)C)cc1)C(O)c1ccc(Cl)cc1` (stereo not shown), the “hERG current change (%, negative = inhibition) at 10uM” value is recorded as -5.75%.
Consider `Cc1cccn2c(/C=N/OCc3cccc(F)c3)c(-c3ccc(Cl)cc3)nc12`, for which the “hERG current change (%, negative = inhibition) at 10uM” value was 7.45%.
Regarding `O=C1C2C(C(=O)N1/N=C/c1ccc(N3CCCCC3)o1)C1C=CC2C12CC2` (stereo not shown), the “hERG current change (%, negative = inhibition) at 10uM” value is recorded as -21.2%.
`COc1ccc(-c2c(C#N)c(SCC(=O)Nc3ccccc3)nc3c2CCCC3)cc1`: the “hERG current change (%, negative = inhibition) at 10uM” value was 22.2%.
In the case of `COc1ccc(-c2cc(C(F)(F)F)nc(NC3CCCC3)n2)cc1OC`, the “hERG current change (%, negative = inhibition) at 10uM” value is -9.12%.
As for `CC1(C(=O)Nc2nnc(C(C)(C)C)s2)Cc2ccccc2C(=O)O1` (stereo not shown), the figure is -5.49%.
With `O=C(CCCc1ccccc1)Nc1ccnn1C1CCN(Cc2ccc(CO)o2)CC1`, the “hERG current change (%, negative = inhibition) at 10uM” value is recorded as -10.5%.
For `Cc1cc(Br)ccc1NC(=O)CN(C)C(=O)COc1cccc2c1OC(C)(C)C2`, the “hERG current change (%, negative = inhibition) at 10uM” value is reported as -8.15%.
For the molecule `O=C(NCc1ccco1)C1CCCN(S(=O)(=O)c2cnc[nH]2)C1` (stereo not shown), the “hERG current change (%, negative = inhibition) at 10uM” value was -0.543%.
As for `COc1ccc(C(=O)n2cnc3ccccc32)cc1`, the “hERG current change (%, negative = inhibition) at 10uM” value is -0.37%.
As for `CCOC(=O)C1=C(C)N(CCCCCC(=O)O)C(=O)NC1c1ccc(Br)cc1` (stereo not shown), the figure is 5.33%; as for `O=C1NC(=S)S/C1=C\c1coc2ccc(O)cc2c1=O`, 14.4%; as for `Cc1c(NC(=O)c2c(F)cccc2F)c(=O)n(-c2ccccc2)n1C`, -2.98%.
For `O=C(CNCC1(N2CCOCC2)CCCCC1)Nc1ccc(Cl)cc1`, the “hERG current change (%, negative = inhibition) at 10uM” value is listed as -78.8%.
